Measured values taken from the supplement of paper PMC4604168 (melanoma cell lines).
Some of the results follow. Repeats are few or missing, and single values can be far off.

Legend:
Experiment in all cases: cell count relative to DMSO control; melanoma cells; higher = more viable cells
Details in all cases: library dose: standard library concentration; 72 h
[1] = tested on: 501Mel
[2] = tested on: A101D
[3] = tested on: A2058
[4] = tested on: A375
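Also: cells treated in 1,536-well plates, then fixed and DAPI-stained, with nuclei counted from automated high-throughput microscope images.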

| SMILES | cell count [1] | cell count [2] | cell count [3] | cell count [4] |
| --- | --- | --- | --- | --- |
| CS(=O)(=O)c1ccc(C(=O)Nc2ccc(Cl)c(-c3ccccn3)c2)c(Cl)c1 [vismodegib] + COC(=O)c1sccc1S(=O)(=O)Nc1ccc(Nc2ccccc2)cc1OC [GSK0660] (first compound 5 µM, partner dose 5 µM) | 114% | 135% | 95.3% | 139% |
| CCCS(=O)(=O)Nc1ccc(F)c(C(=O)c2c[nH]c3ncc(Cl)cc23)c1F + Oc1cc(-c2nc(-c3ccccc3)[nH]c2-c2ccncc2)ccc1Cl [L779450] (first compound 0.4 µM, partner dose 1 µM) | 84.4% | 68.1% | 90.2% | 90.7% |
| NC1(c2ccc(-c3nc4ccn5c(=O)[nH]nc5c4cc3-c3ccccc3)cc2)CCC1 + COc1cc2ncnc(Nc3ccc(Oc4ccccc4)cc3)c2cc1OC [SrcI1] (first compound 2 µM, partner dose 10 µM) | 52.6% | 17.1% | 51.4% | 88.9% |
| CS(=O)(=O)c1ccc(C(=O)Nc2ccc(Cl)c(-c3ccccn3)c2)c(Cl)c1 [vismodegib] + O=C(O)C(=O)Nc1sc2c(c1C(=O)O)CCNC2 [TCS401] (first compound 5 µM, partner dose 8.33333 µM) | 90.5% | 105% | 85% | 175% |
| NC1(c2ccc(-c3nc4ccn5c(=O)[nH]nc5c4cc3-c3ccccc3)cc2)CCC1 + COc1ccc(-c2ccc3c(N4CCOCC4)nc(N4C[C@@H](C)O[C@@H](C)C4)nc3n2)cc1CO [KU0063794] (first compound 2 µM, partner dose 0.1 µM) | 135% | 64.6% | 80.1% | 101% |
| NC1(c2ccc(-c3nc4ccn5c(=O)[nH]nc5c4cc3-c3ccccc3)cc2)CCC1 + O=S(=O)(c1ccccc1)N(CC(F)(F)F)c1ccc(C(O)(C(F)(F)F)C(F)(F)F)cc1 [T0901317] (first compound 2 µM, partner dose 7 µM) | 58.1% | 80.8% | 76% | 114% |
| CCCS(=O)(=O)Nc1ccc(F)c(C(=O)c2c[nH]c3ncc(Cl)cc23)c1F + COc1cc(N2CCC(N3CCN(C)CC3)CC2)ccc1Nc1ncc(Cl)c(Nc2ccccc2S(=O)(=O)C(C)C)n1 [NVP-TAE684] (first compound 0.4 µM, partner dose 0.4 µM) | 93.6% | 69.2% | 65.3% | 80.5% |
| CN(c1ncccc1CNc1nc(Nc2ccc3c(c2)CC(=O)N3)ncc1C(F)(F)F)S(C)(=O)=O + O=C(O)C(=O)Nc1sc2c(c1C(=O)O)CCNC2 [TCS401] (first compound 0.4 µM, partner dose 8.33333 µM) | 78.1% | 91.3% | 81.5% | 147% |
| NC1(c2ccc(-c3nc4ccn5c(=O)[nH]nc5c4cc3-c3ccccc3)cc2)CCC1 + CCCCCCCCCCCC1=C(O)C(=O)C=C(O)C1=O [Embelin] (first compound 2 µM, partner dose 6 µM) | 101% | 64.8% | 69.4% | 118% |
| CN(c1ncccc1CNc1nc(Nc2ccc3c(c2)CC(=O)N3)ncc1C(F)(F)F)S(C)(=O)=O + COc1cc2ncnc(Nc3ccc(Oc4ccccc4)cc3)c2cc1OC [SrcI1] (first compound 0.4 µM, partner dose 10 µM) | 67.9% | 68.3% | 75.5% | 115% |
| CS(=O)(=O)c1ccc(C(=O)Nc2ccc(Cl)c(-c3ccccn3)c2)c(Cl)c1 [vismodegib] + Oc1nc(-c2ccc(C(F)(F)F)cc2)nc2c1CSCC2 [XAV939] (first compound 5 µM, partner dose 10 µM) | 82.8% | 97.6% | 84.4% | 95.4% |
| CCCS(=O)(=O)Nc1ccc(F)c(C(=O)c2c[nH]c3ncc(Cl)cc23)c1F + COc1ccc(COc2ccc(Cc3cnc(N)nc3N)cc2OC)cc1 [GW2580] (first compound 0.4 µM, partner dose 5 µM) | 85.3% | 72.3% | 107% | 80.3% |
| CN(c1ncccc1CNc1nc(Nc2ccc3c(c2)CC(=O)N3)ncc1C(F)(F)F)S(C)(=O)=O + CCc1ccc(CCOc2ccc(CC3SC(=O)NC3=O)cc2)nc1 [pioglitazone] (first compound 0.4 µM, partner dose 10 µM) | 55.6% | 82.7% | 86% | 62% |
| NC1(c2ccc(-c3nc4ccn5c(=O)[nH]nc5c4cc3-c3ccccc3)cc2)CCC1 + O=c1cc(-c2cccc3c2Sc2ccccc2S3)oc(N2CCOCC2)c1 [KU55933] (first compound 2 µM, partner dose 5 µM) | 78.6% | 74.3% | 77.6% | 128% |
| CN(c1ncccc1CNc1nc(Nc2ccc3c(c2)CC(=O)N3)ncc1C(F)(F)F)S(C)(=O)=O + COc1cc(N2CCC(N3CCN(C)CC3)CC2)ccc1Nc1ncc(Cl)c(Nc2ccccc2S(=O)(=O)C(C)C)n1 [NVP-TAE684] (first compound 0.4 µM, partner dose 0.4 µM) | 73% | 79.4% | 66.3% | 90.3% |
| NC1(c2ccc(-c3nc4ccn5c(=O)[nH]nc5c4cc3-c3ccccc3)cc2)CCC1 + N#Cc1c(O)c2c(-c3ccc(-c4ccccc4O)cc3)csc2[nH]c1=O [A769662] (first compound 2 µM, partner dose 10 µM) | 73% | 77.7% | 75.1% | 118% |
| CS(=O)(=O)c1ccc(C(=O)Nc2ccc(Cl)c(-c3ccccn3)c2)c(Cl)c1 [vismodegib] + O=S(=O)(c1ccccc1)N(CC(F)(F)F)c1ccc(C(O)(C(F)(F)F)C(F)(F)F)cc1 [T0901317] (first compound 5 µM, partner dose 7 µM) | 76.1% | 111% | 102% | 99.6% |
| C=C(c1ccc(C(=O)O)cc1)c1cc2c(cc1C)C(C)(C)CCC2(C)C [Bexarotene] + Cc1cc([N+](=O)[O-])ccc1NS(=O)(=O)c1cc(Cl)ccc1Cl [FH535] (first compound 10 µM, partner dose 5 µM) | 83.4% | 76.6% | 77.5% | 88.3% |
| CN(c1ncccc1CNc1nc(Nc2ccc3c(c2)CC(=O)N3)ncc1C(F)(F)F)S(C)(=O)=O + Cn1cc(/C=C2\C(=O)Nc3cccnc32)c2ccccc21 [GW441756] (first compound 0.4 µM, partner dose 2 µM) | 87.1% | 78.4% | 108% | 77% |
| CCCS(=O)(=O)Nc1ccc(F)c(C(=O)c2c[nH]c3ncc(Cl)cc23)c1F + CC(C)CCN1c2nc(Nc3cc(F)c(O)c(F)c3)ncc2N(C)C(=O)C1C [BID1870] (first compound 0.4 µM, partner dose 1 µM) | 97.1% | 76.6% | 93.2% | 104% |
| CS(=O)(=O)c1ccc(C(=O)Nc2ccc(Cl)c(-c3ccccn3)c2)c(Cl)c1 [vismodegib] + COc1ccc(-c2ccc3c(N4CCOCC4)nc(N4C[C@@H](C)O[C@@H](C)C4)nc3n2)cc1CO [KU0063794] (first compound 5 µM, partner dose 0.1 µM) | 78.2% | 92.6% | 94.8% | 112% |
| CCCS(=O)(=O)Nc1ccc(F)c(C(=O)c2c[nH]c3ncc(Cl)cc23)c1F + N#Cc1c(O)c2c(-c3ccc(-c4ccccc4O)cc3)csc2[nH]c1=O [A769662] (first compound 0.4 µM, partner dose 10 µM) | 118% | 73.8% | 102% | 87.3% |
| CS(=O)(=O)c1ccc(C(=O)Nc2ccc(Cl)c(-c3ccccn3)c2)c(Cl)c1 [vismodegib] + O=c1cc(-c2cccc3c2Sc2ccccc2S3)oc(N2CCOCC2)c1 [KU55933] (first compound 5 µM, partner dose 5 µM) | 101% | 89.1% | 97.4% | 128% |
| CN(c1ncccc1CNc1nc(Nc2ccc3c(c2)CC(=O)N3)ncc1C(F)(F)F)S(C)(=O)=O + Oc1cc(-c2nc(-c3ccccc3)[nH]c2-c2ccncc2)ccc1Cl [L779450] (first compound 0.4 µM, partner dose 1 µM) | 44.7% | 60.3% | 73.2% | 63.6% |
| CCCS(=O)(=O)Nc1ccc(F)c(C(=O)c2c[nH]c3ncc(Cl)cc23)c1F + O=S(=O)(c1ccccc1)N(CC(F)(F)F)c1ccc(C(O)(C(F)(F)F)C(F)(F)F)cc1 [T0901317] (first compound 0.4 µM, partner dose 7 µM) | 85.2% | 71.4% | 109% | 84.5% |
| NC1(c2ccc(-c3nc4ccn5c(=O)[nH]nc5c4cc3-c3ccccc3)cc2)CCC1 + COC(=O)c1sccc1S(=O)(=O)Nc1ccc(Nc2ccccc2)cc1OC [GSK0660] (first compound 2 µM, partner dose 5 µM) | 102% | 87.7% | 84.8% | 82.1% |
| CN(c1ncccc1CNc1nc(Nc2ccc3c(c2)CC(=O)N3)ncc1C(F)(F)F)S(C)(=O)=O + CCCCCCCCCCCC1=C(O)C(=O)C=C(O)C1=O [Embelin] (first compound 0.4 µM, partner dose 6 µM) | 72% | 69.9% | 74.7% | 80.6% |
| CS(=O)(=O)c1ccc(C(=O)Nc2ccc(Cl)c(-c3ccccn3)c2)c(Cl)c1 [vismodegib] + Cn1cc(/C=C2\C(=O)Nc3cccnc32)c2ccccc21 [GW441756] (first compound 5 µM, partner dose 2 µM) | 74% | 136% | 93.2% | 129% |
